Read-outs that look alike come from different tables or passages of the source.
Legend:
[1] = tested on: anti-molinate monoclonal antibody (MoAb 14D7); assay: Cross-reactivity of the PHAIA (phage anti-immunocomplex assay) with related thiocarbamate pesticides
[2] = tested on: anti-molinate monoclonal antibody (MoAb 14D7); assay: Cross-reactivity of the pA-Nanopeptamer noncompetitive ELISA with related thiocarbamate pesticides; settings: 100 x SC50(analyte)/SC50(cross-reacting compound), molar; mean of two independent experiments
[3] = 100 x SC50(analyte)/SC50(cross-reacting compound), mean of two independent experiments

Molecule	Cross reactivity, PHAIA assay [1, 3] [%]	Cross reactivity, pA-Nanopeptamer assay [2] [%]	Cross reactivity, PHAIA assay [1] [%]
CCCN(CCC)C(=O)SCC [EPTC]	5	2	–
CCCSC(=O)N(CCC)CCC [Vernolate]	4	5	–
CCSC(=O)N1CCCCCC1 [Molinate]	100	100	–
CCN(CC)C(=O)SCc1ccc(Cl)cc1 [thiobencarb]	–	–	0
CCCCN(CC)C(=O)SCCC [Pebulate]	–	–	7
CCSC(=O)N(CC(C)C)CC(C)C [Butylate]	0	1	–
Cycloate	9	10	–

Reference: patent publication US10101324B2, “Non-competitive immunoassays to detect small molecules using nanopeptamers” (priority 2012, dated 2018)
